# The supplement of paper PMC8728848
# The list shows a part of the results.
# B1: Clone730PsrP (Streptococcus pneumoniae) (protein)
# chain: MDHHHHHHHHHHASENLYFQGAMVVGSQTAAATEATAKKVEEDRKKPASDYVASVTNVNLQSYAKRRKRSVDSIEQLLASIKNAAVFSGNTIVNGAPAINASLNIAKSETKVYTGEGVDSVYRVPIYYKLKVTNDGSKLTFTYTVTYVNPKTNDLGNISSMRPGYSIYNSGTSTQTMLTLGSDLGKPSGVKNYITDKNGRQVLSYNTSTMTTQGSGYTWGNGAQMNGFFAKKGYGLTSSWTVPITGTDTSFTFTPYAARTDRIGINYFNGGGKVVESSTT
# Tests used:
# Assay in all cases: glycan array binding signal (z-score within array); higher = stronger binding
# Conditions in all cases: glycan notation: IUPAC condensed, linker removed
# [1] = molecular target: Neu5Ac(a2-6)Gal(b1-4)GlcNAc(b1-2)Man(a1-3)[Man(a1-6)]Man(b1-4)GlcNAc(b1-4)GlcNAc
# Outline: (§1)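 Columns mapping to the same glycan were averaged after glycan names were converted to IUPAC-condensed notation. The data come from 3228 arrays in the Consortium for Functional Glycomics database, limited to those with an available protein sequence. Binding is reported as a within-array Z-score averaged across arrays of one protein sequence and across linkers.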
# [2] = molecular target: Neu5Ac(a2-6)Gal(b1-4)GlcNAc(b1-2)Man(a1-3)[Neu5Ac(a2-3)Gal(b1-4)GlcNAc(b1-2)Man(a1-6)]Man(b1-4)GlcNAc(b1-4)GlcNAc
# Outline: as §1
# [3] = molecular target: Neu5Ac(a2-6)Gal(b1-4)GlcNAc(b1-2)Man(a1-3)[Neu5Ac(a2-6)Gal(b1-4)GlcNAc(b1-2)Man(a1-6)]Man(b1-4)GlcNAc(b1-4)GlcNAc
# Outline: as §1
# [4] = molecular target: Neu5Ac(a2-6)Gal(b1-4)GlcNAc(b1-2)Man(a1-3)[Neu5Ac(a2-6)Gal(b1-4)GlcNAc(b1-2)Man(a1-6)]Man(b1-4)GlcNAc(b1-4)[Fuc(a1-6)]GlcNAc
# Outline: as §1
# [5] = molecular target: Neu5Ac(a2-6)Gal(b1-4)GlcNAc(b1-2)Man(a1-6)Man(b1-4)GlcNAc(b1-4)GlcNAc
# Outline: as §1
# [6] = molecular target: Neu5Ac(a2-6)Gal(b1-4)GlcNAc(b1-2)Man(a1-6)[Gal(b1-4)GlcNAc(b1-2)Man(a1-3)]Man(b1-4)GlcNAc(b1-4)GlcNAc
# Outline: as §1
# [7] = molecular target: Neu5Ac(a2-6)Gal(b1-4)GlcNAc(b1-2)Man(a1-6)[GlcNAc(b1-2)Man(a1-3)]Man(b1-4)GlcNAc(b1-4)GlcNAc
# Outline: as §1
# [8] = molecular target: Neu5Ac(a2-6)Gal(b1-4)GlcNAc(b1-2)Man(a1-6)[Man(a1-3)]Man(b1-4)GlcNAc(b1-4)GlcNAc
# Outline: as §1
# [9] = molecular target: Neu5Ac(a2-6)Gal(b1-4)GlcNAc(b1-2)[Neu5Ac(a2-6)Gal(b1-4)GlcNAc(b1-4)]Man(a1-3)[GlcNAc(b1-4)][Neu5Ac(a2-6)Gal(b1-4)GlcNAc(b1-2)[Neu5Ac(a2-6)Gal(b1-4)GlcNAc(b1-6)]Man(a1-6)]Man(b1-4)GlcNAc(b1-4)GlcNAc
# Outline: as §1
# [10] = molecular target: Neu5Ac(a2-6)Gal(b1-4)GlcNAc(b1-2)[Neu5Ac(a2-6)Gal(b1-4)GlcNAc(b1-4)]Man(a1-3)[GlcNAc(b1-4)][Neu5Ac(a2-6)Gal(b1-4)GlcNAc(b1-4)Man(a1-6)]Man(b1-4)GlcNAc(b1-4)GlcNAc
# Outline: as §1
# [11] = molecular target: Neu5Ac(a2-6)Gal(b1-4)GlcNAc(b1-2)[Neu5Ac(a2-6)Gal(b1-4)GlcNAc(b1-6)]Man(a1-6)[Neu5Ac(a2-6)Gal(b1-4)GlcNAc(b1-2)Man(a1-3)][GlcNAc(b1-4)]Man(b1-4)GlcNAc(b1-4)GlcNAc
# Outline: as §1
# [12] = molecular target: Neu5Ac(a2-6)Gal(b1-4)GlcNAc(b1-3)Gal(b1-3)GlcNAc
# Outline: as §1
# [13] = molecular target: Neu5Ac(a2-6)Gal(b1-4)GlcNAc(b1-3)Gal(b1-4)GlcNAc
# Outline: as §1
# [14] = molecular target: Neu5Ac(a2-6)Gal(b1-4)GlcNAc(b1-3)Gal(b1-4)GlcNAc(b1-2)Man(a1-3)[Neu5Ac(a2-6)Gal(b1-4)GlcNAc(b1-3)Gal(b1-4)GlcNAc(b1-2)Man(a1-6)]GalNAc
# Outline: as §1
# [15] = molecular target: Neu5Ac(a2-6)Gal(b1-4)GlcNAc(b1-3)Gal(b1-4)GlcNAc(b1-3)Gal(b1-4)GlcNAc
# Outline: as §1
# [16] = molecular target: Neu5Ac(a2-6)Gal(b1-4)GlcNAc(b1-3)Gal(b1-4)GlcNAc(b1-3)Gal(b1-4)GlcNAc(b1-2)Man(a1-3)[Neu5Ac(a2-6)Gal(b1-4)GlcNAc(b1-3)Gal(b1-4)GlcNAc(b1-3)Gal(b1-4)GlcNAc(b1-2)Man(a1-6)]GalNAc
# Outline: as §1
# [17] = molecular target: Neu5Ac(a2-6)Gal(b1-4)GlcNAc(b1-3)Gal(b1-4)GlcNAc(b1-3)GalNAc
# Outline: as §1
# [18] = molecular target: Neu5Ac(a2-6)Gal(b1-4)GlcNAc(b1-3)Gal(b1-4)GlcNAc(b1-3)[Neu5Ac(a2-6)Gal(b1-4)GlcNAc(b1-3)Gal(b1-4)GlcNAc(b1-6)]GalNAc
# Outline: as §1
# [19] = molecular target: Neu5Ac(a2-6)Gal(b1-4)GlcNAc(b1-3)Gal(b1-4)GlcNAc(b1-6)[Gal(b1-3)]GalNAc
# Outline: as §1
# [20] = molecular target: Neu5Ac(a2-6)Gal(b1-4)GlcNAc(b1-3)Gal(b1-4)[Fuc(a1-3)]GlcNAc(b1-3)Gal(b1-4)[Fuc(a1-3)]GlcNAc
# Outline: as §1
# [21] = molecular target: Neu5Ac(a2-6)Gal(b1-4)GlcNAc(b1-3)GalNAc
# Outline: as §1
# [22] = molecular target: Neu5Ac(a2-6)Gal(b1-4)GlcNAc(b1-3)[Neu5Ac(a2-6)Gal(b1-4)GlcNAc(b1-6)]GalNAc
# Outline: as §1
# [23] = molecular target: Neu5Ac(a2-6)Gal(b1-4)GlcNAc(b1-6)GalNAc
# Outline: as §1
# [24] = molecular target: Neu5Ac(a2-6)Gal(b1-4)GlcNAc(b1-6)[Gal(b1-3)GlcNAc(b1-3)]Gal(b1-4)Glc
# Outline: as §1
# [25] = molecular target: Neu5Ac(a2-6)Gal(b1-4)GlcNAc(b1-6)[Gal(b1-3)]GalNAc
# Outline: as §1
# [26] = molecular target: Neu5Ac(a2-6)Gal(b1-4)GlcNAc6S
# Outline: as §1
# [27] = molecular target: Neu5Ac(a2-6)GalNAc
# Outline: as §1
# [28] = molecular target: Neu5Ac(a2-6)GalNAc(b1-4)GlcNAc
# Outline: as §1
# [29] = molecular target: Neu5Ac(a2-6)GalNAc(b1-4)GlcNAc6S
# Outline: as §1
# [30] = molecular target: Neu5Ac(a2-6)GlcNAc(b1-4)GlcNAc
# Outline: as §1
# [31] = molecular target: Neu5Ac(a2-6)GlcNAc(b1-4)GlcNAc(b1-4)GlcNAc
# Outline: as §1
binder,measurement,setting,value
B1,glycan array binding signal (z-score),[1],-0.461
same,glycan array binding signal (z-score),[2],-0.454
same,glycan array binding signal (z-score),[3],-0.105
same,glycan array binding signal (z-score),[4],0.395
same,glycan array binding signal (z-score),[5],-0.424
same,glycan array binding signal (z-score),[6],-0.545
same,glycan array binding signal (z-score),[7],-0.372
same,glycan array binding signal (z-score),[8],-0.549
same,glycan array binding signal (z-score),[9],-0.264
same,glycan array binding signal (z-score),[10],-0.355
same,glycan array binding signal (z-score),[11],-0.585
same,glycan array binding signal (z-score),[12],-0.279
same,glycan array binding signal (z-score),[13],-0.249
same,glycan array binding signal (z-score),[14],0.111
same,glycan array binding signal (z-score),[15],0.043
same,glycan array binding signal (z-score),[16],0.355
same,glycan array binding signal (z-score),[17],-0.525
same,glycan array binding signal (z-score),[18],0.111
same,glycan array binding signal (z-score),[19],-0.382
same,glycan array binding signal (z-score),[20],-0.264
same,glycan array binding signal (z-score),[21],0.063
same,glycan array binding signal (z-score),[22],-0.567
same,glycan array binding signal (z-score),[23],0.094
same,glycan array binding signal (z-score),[24],-0.434
same,glycan array binding signal (z-score),[25],0.145
same,glycan array binding signal (z-score),[26],-0.391
same,glycan array binding signal (z-score),[27],-0.318
same,glycan array binding signal (z-score),[28],-0.466
same,glycan array binding signal (z-score),[29],-0.059
same,glycan array binding signal (z-score),[30],-0.403
same,glycan array binding signal (z-score),[31],-0.283
